From the antibiotic and cytotoxicity screens of Wong et al. (2023)
The list shows a part of the results.

Experiments:
HSkMC = human skeletal muscle cells; assay: cytotoxicity call (relative viability < 0.9); settings: 10 µM
HepG2 = assay: cytotoxicity call (relative viability < 0.9); settings: 10 µM
S. aureus RN4220 = assay: growth inhibition call (relative growth <= 0.2); settings: 50 µM

SMILES	cytotoxicity call (HSkMC)	cytotoxicity call (HepG2)	growth inhibition call (S. aureus RN4220)
Cc1nn(CC(=O)NC(C)C)c(C)c1[N+](=O)[O-]	inactive	inactive	inactive
COc1ccc(NC(=O)Nc2ccc3c(c2)C(=O)N([C@@H](C)CO)C[C@@H](C)[C@@H](CN(C)Cc2ccc(-c4ccccc4)cc2)O3)cc1	inactive	active	inactive
Cc1cc(C)n(-c2nc3c(c(=O)n(CCN4CCOCC4)c(=O)n3C)n2C)n1	inactive	inactive	inactive
CC(=O)N(O)CCCCCNC(=O)CCC(=O)N(O)CCCCCNC(=O)CCC(=O)N(O)CCCCCN.CS(=O)(=O)O	inactive	active	inactive
C[C@H](CO)N1C[C@H](C)[C@@H](CN(C)C(=O)NC2CCCCC2)OCCCC[C@H](C)Oc2ccc(NC(=O)NC3CCCCC3)cc2C1=O	inactive	inactive	inactive
COc1cccc(NC(=O)N2C[C@@H](O)COC[C@H]3O[C@@H](CC(=O)NCc4ccccc4F)CC[C@@H]32)c1	inactive	inactive	inactive
CC(C)(C)OC(=O)N1CC(O)C1	inactive	inactive	inactive
Cc1noc(C)c1S(=O)(=O)N(C)C[C@@H]1Oc2ccc(NC(=O)C3CCCCC3)cc2CC(=O)N([C@H](C)CO)C[C@@H]1C	inactive	inactive	inactive
C[C@@H]1CCCCO[C@@H](CN(C)Cc2ccc(Cl)c(Cl)c2)[C@@H](C)CN([C@@H](C)CO)C(=O)c2cc(NC(=O)Nc3ccc(F)cc3)ccc2O1	inactive	active	inactive
C=CC(=O)N1C[C@H]2CC[C@H](O)[C@H]2C1	inactive	inactive	inactive
C[C@H](CO)N1C[C@H](C)[C@H](CN(C)C(=O)Nc2cccc3ccccc23)OCCCC[C@H](C)Oc2ccc(NC(=O)CCCN(C)C)cc2C1=O	inactive	inactive	inactive
Cc1cccc(S(=O)(=O)N2C[C@H](O)COC[C@H]3O[C@H](CC(=O)NCc4ccc5c(c4)OCO5)CC[C@@H]32)c1	inactive	inactive	inactive
COc1ccc(NC(=O)Nc2ccc3c(c2)C(=O)N([C@@H](C)CO)C[C@H](C)[C@@H](CN(C)C(=O)C2CCCCC2)OCCCC[C@@H](C)O3)cc1	inactive	inactive	inactive
N#C[C@H]1NCc2cnnn2Cc2ccccc21	inactive	inactive	inactive
C[C@H](CO)N1C[C@H](C)[C@@H](CN(C)Cc2cncnc2)Oc2cc(C3=CCCCC3)ccc2S1(=O)=O	inactive	inactive	inactive
CO[C@@H]1CN(C)C(=O)c2cc(NS(=O)(=O)c3cn(C)cn3)ccc2OC[C@H](C)N(CCC(F)(F)F)C[C@@H]1C	inactive	inactive	inactive
COc1ccc(NC(=O)N(C)C[C@@H]2Oc3ncc(C#C[C@H](C)O)cc3C(=O)N([C@H](C)CO)C[C@H]2C)cc1	inactive	inactive	inactive
C[C@@H]1CN([C@H](C)CO)C(=O)c2cc(C#CC3(O)CCCC3)cnc2O[C@@H]1CN(C)C(=O)CN(C)C	inactive	inactive	inactive
C[C@H]1CN([C@@H](C)CO)C(=O)c2cccc(NC(=O)c3cnccn3)c2O[C@@H]1CN(C)C(=O)Nc1ccccc1	inactive	inactive	inactive
COc1ccc(NC(=O)Nc2ccc3c(c2)CC(=O)N([C@@H](C)CO)C[C@@H](C)[C@H](CN(C)Cc2ccc(Oc4ccccc4)cc2)O3)cc1	active	active	inactive
Cc1nc2ccccn2c(=O)c1CCN1CCC(C(=O)c2ccc(F)cc2)CC1	inactive	inactive	inactive
COc1ccc(S(=O)(=O)N(C)C[C@@H]2Oc3ccc(NC(=O)CCN4CCOCC4)cc3CC(=O)N([C@H](C)CO)C[C@@H]2C)cc1	inactive	inactive	inactive
CC(C)CS(=O)(=O)N1C[C@H]2C[C@H](C(=O)N3CCOCC3)[C@@H](C1)O2	inactive	inactive	inactive
C[C@@H]1CCCCO[C@@H](CN(C)C(=O)Cc2ccccc2)[C@@H](C)CN([C@H](C)CO)C(=O)c2cc(NC(=O)NC3CCCCC3)ccc2O1	inactive	inactive	inactive
C=CC1=C(C(=O)O)N2C(=O)[C@@H](NC(=O)/C(=N/O)c3csc(N)n3)[C@H]2SC1	inactive	inactive	active
Cc1noc(C)c1NC(=O)N(C)C[C@H]1OCCCC[C@H](C)Oc2ccc(NC(=O)C3CCCCC3)cc2C(=O)N([C@@H](C)CO)C[C@H]1C	inactive	inactive	inactive
